In PubChem BioAssay AID651820 (National Center for Advancing Translational Sciences (NCATS), 2012):
Among all 340,000 compounds or so, about 12,000 (3.5%) were called active. The inconclusive results got no clear call from the source; some entries with a clear call stand among them for comparison. Calls come from the whole dose curve; as a rule, active = well fitted inhibition curve with a large enough effect; inconclusive = small, poorly fitted or top-dose-only effect, or another doubt; inactive = no such curve, though single readings can be large or run the other way. Potencies of inconclusive entries are left out as doubtful fits.

experiment: qHTS Assay for Inhibitors of Hepatitis C Virus (HCV); conditions: Huh7.5.1 HCVcc-Cre (HCVcc is cell-culture hepatitis C virus) infection, luciferase reporter, 44 h; activity change, negative = inhibition: at 41.8 µM (top of the series) unless noted
Method in brief: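 Antiviral activity was scored by luciferase reporter output from cells infected with HCVcc-Cre (~0.5 moi) in presence of compound, 44 h infection period, cells seeded 1,000/well 4 h prior.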
% is set by controls: 0 for no effect and ±100 for the full control effect; potency is the fitted concentration of half-maximal effect; tags give direction and shape of the fitted curve.

Question: Which “activity change, negative = inhibition” value does the source give for `O=CN/C=C/c1cc(O)ccc1O` here?
Answer: inactive: 9.86%

Question: For `CC(C)(c1ccccc1)c1ccc(OCCn2cnc3ccccc3c2=O)cc1`, which Potency is on record?
Answer: inconclusive [inhibitor, single point]

Question: For `C[C@@H]1CC2[C@@H]3CC[C@H]4CC(=O)CC[C@]4(C)C3=CC[C@]2(C)[C@@]1(O)C(=O)CO` (some centres not stated), which Potency is on record?
Answer: inconclusive [inhibitor, partial curve]

Question: For `Oc1ccc(-c2n[nH]c(=S)n2-c2ccc3c(c2)OCCO3)c(O)c1`, which “activity change, negative = inhibition” value is on record?
Answer: inactive: -25.4%

Question: For `Cc1ccc2nc(Cl)c(C3CC(c4ccco4)=NN3C(=O)CCCC(=O)O)cc2c1` (configuration not stated), which Potency is on record?
Answer: inconclusive [inhibitor, single point]

Question: Which “activity change, negative = inhibition” value does the source give for `COc1ccc(CN2CCCC(CNC(=O)c3ccc(F)cc3)C2)c(F)c1` (configuration not stated) here?
Answer: inactive: 6.3%

Question: Which Potency does the source give for `Cn1c2ccccc2n2c(=O)c(Cl)c(-c3ccccc3)c(C#N)c12` here?
Answer: inconclusive [inhibitor, partial curve]

Question: For `Cc1ccc(CSc2nc3ccccc3c(=O)n2C)cc1`, which Potency is on record?
Answer: inconclusive [inhibitor, partial curve]

Question: For `O=C(CN1CCN(S(=O)(=O)N2CCCCC2)CC1)Nc1ccc(Cl)c(Cl)c1`, which Potency is on record?
Answer: inconclusive [inhibitor, partial curve]

Question: With `CC1CCCN(C(=O)c2ccc(S(=O)(=O)N3CCC(c4nc5ccccc5s4)CC3)cc2)C1` (configuration not stated) as the compound, how does the Potency read?
Answer: active: 10 µM

Question: With `COc1ccccc1NC(=S)N1CCN(c2nc(-c3ccccc3)cs2)CC1` as the compound, how does the Potency read?
Answer: inconclusive [inhibitor, partial curve, poor fit]

Question: With `CN(Cc1ccc(Cl)cc1)C(=O)COC(=O)c1ccc(-c2ccc(O)cc2)cc1` as the compound, how does the “activity change, negative = inhibition” value read?
Answer: inactive: 3.01%

Question: With `CO/N=C/C(=N\Nc1ccc(OC)cc1)C(=O)c1ccc(F)cc1` as the compound, how does the Potency read?
Answer: inconclusive [inhibitor, partial curve]

Question: For `O=C(Nc1cccc(S(=O)(=O)Nc2ccc(SC(F)F)cc2)c1)C1CCC1`, which Potency is on record?
Answer: inconclusive [inhibitor, partial curve]

Question: Which Potency does the source give for `O=C(CSc1nnc(SCc2ccccc2Cl)s1)N/N=C/c1c[nH]c2ccccc12` here?
Answer: inconclusive [inhibitor, single point]

Question: Which Potency does the source give for `Cc1nc(CN(C)C(=O)c2cc(COc3ccc4ncccc4c3)on2)cs1` here?
Answer: inconclusive [inhibitor, partial curve]

Question: With `CC(C)(C)c1ccc(-c2nnc3sc(-c4ccncc4)nn23)cc1` as the compound, how does the Potency read?
Answer: inconclusive [inhibitor, full curve, poor fit]

Question: For `CC1CCCCN1S(=O)(=O)c1cccc(S(=O)(=O)N2CCOCC2)c1` (configuration not stated), which “activity change, negative = inhibition” value is on record?
Answer: inactive: 5.97%

Question: Which Potency does the source give for `COc1ccc(Cl)cc1NC(=O)CN(C)C(=O)c1ccc(OCc2ccccc2)c(OC)c1` here?
Answer: inconclusive [inhibitor, single point]

Question: With `COc1cc(/C=C/C(=O)Nc2ccc3nc4n(c(=O)c3c2)CCCC4)cc(OC)c1OC` as the compound, how does the Potency read?
Answer: inconclusive [inhibitor, partial curve]

Question: Which Potency does the source give for `N#Cc1sc2nc(C3CC3)cc(-c3ccc(Cl)cc3)c2c1N` here?
Answer: inconclusive [inhibitor, single point]

Question: Which Potency does the source give for `CN(C)CCCN(C(=O)c1ccc(S(=O)(=O)N2CCCCCC2)cc1)c1nc2ccc(F)cc2s1` here?
Answer: inconclusive [inhibitor, single point]

Question: Which Potency does the source give for `O=S(=O)(c1ccc(-c2csc(-c3cccnc3)n2)cc1)N1CCCCC1` here?
Answer: inconclusive [inhibitor, single point]

Question: For `CC(C)(C)c1cc[n+](/C(C(=S)Nc2ccccc2F)=C(/[O-])c2ccc3c(c2)OCCO3)cc1`, which “activity change, negative = inhibition” value is on record?
Answer: inactive: 10%

Question: With `OC(c1ccccc1)(c1ccccc1)C1CN2CCC1CC2` (configuration not stated) as the compound, how does the Potency read?
Answer: inconclusive [inhibitor, single point]

Question: Which Potency does the source give for `COc1ccc(Cl)cc1NC(=O)N(C)Cc1c(C)nn(C)c1C` here?
Answer: inconclusive [inhibitor, partial curve]

Question: With `C(=N\n1cnnc1)/c1ccc(-c2ccccc2)cc1` as the compound, how does the Potency read?
Answer: inconclusive [inhibitor, partial curve]

Question: Which Potency does the source give for `Cc1sc2ncnc(NCC(c3ccco3)N(C)C)c2c1C` (configuration not stated) here?
Answer: inconclusive [inhibitor, partial curve, poor fit]

Question: For `COc1ccc(S(=O)(=O)NC(C(=O)OCC(=O)Nc2ccc(N3CCOCC3)cc2)C(C)C)cc1` (configuration not stated), which “activity change, negative = inhibition” value is on record?
Answer: inactive: 11.7%

Question: For `COC(=O)Cc1ccc(O)c(N)c1`, which Potency is on record?
Answer: inconclusive [inhibitor, single point]

Question: With `CC(OC(=O)CCCCCN=C1NS(=O)(=O)c2ccccc21)C(=O)Nc1cc(Cl)cc(Cl)c1` (configuration not stated) as the compound, how does the Potency read?
Answer: inconclusive [inhibitor, partial curve, poor fit]

Question: Which Potency does the source give for `COc1ccc(CCNc2nc(N3CCCCC3)nc(N3CCCCC3)n2)cc1OC` here?
Answer: active: 22.4 µM

Question: For `CCN(CC)c1ccc(NC(=O)c2nc3nc(C)cc(C(F)F)n3n2)cc1`, which Potency is on record?
Answer: inconclusive [inhibitor, single point]

Question: With `C=CCNCCCCOc1ccc(OCc2ccccc2)cc1` as the compound, how does the Potency read?
Answer: inconclusive [inhibitor, partial curve]

Question: With `Nc1nc(CSc2nc3ccccc3s2)nc(N2CCOCC2)n1` as the compound, how does the “activity change, negative = inhibition” value read?
Answer: inactive: -28.8%

Question: With `CCCCOc1c(Cl)cc(C(=O)N2CCN(CC(=O)N3CCCC3)CC2)cc1OCC` as the compound, how does the Potency read?
Answer: active: 10 µM

Question: With `CCOc1ccc(-c2nc(N)ncc2-c2ccc(OC)cc2)c(O)c1` as the compound, how does the Potency read?
Answer: inconclusive [inhibitor, single point]

Question: For `O=C(c1ccccc1)c1cn(CC(=O)N2CCCc3ccccc32)c2ccccc12`, which Potency is on record?
Answer: inconclusive [inhibitor, partial curve]

Question: For `Cc1ccc(C(C)C)c(OCC(=O)N2CCN(c3ncccn3)CC2)c1`, which “activity change, negative = inhibition” value is on record?
Answer: inactive: 21.9%

Question: With `COc1cc(NC(=O)c2cccc3c2C(=O)N(C2CCCCC2)C3)cc(OC)c1OC` as the compound, how does the Potency read?
Answer: active: 6.31 µM

Question: With `Cc1ccccc1NC(=O)Cc1nc(COC(=O)CCNS(=O)(=O)c2ccccc2)cs1` as the compound, how does the Potency read?
Answer: inconclusive [inhibitor, partial curve, poor fit]

Question: For `C[C@H](CO)N1C[C@H](C)[C@@H](CN(C)S(=O)(=O)c2cccs2)Oc2c(NC(=O)Cc3ccccc3)cccc2C1=O`, which Potency is on record?
Answer: inconclusive [inhibitor, single point]
